# Measurements taken from PubChem BioAssay AID1476 (National Center for Advancing Translational Sciences (NCATS), 2009).
# Hit rate of the full screen: of about 200,000 compounds, about 4,500 (2.2%) were called active. The inconclusive results got no clear call from the source; some entries with a clear call stand among them for comparison. Calls come from the whole dose curve; as a rule, active = well fitted inhibition curve with a large enough effect; inconclusive = small, poorly fitted or top-dose-only effect, or effect the other way; inactive = flat fitted curve, though single readings scatter. Potencies beside an inconclusive call are fits to weak or partial responses and may not hold up.
# Target: Cruzipain (Trypanosoma cruzi) (UniProt P25779)
# Test: qHTS Assay for Promiscuous and Specific Inhibitors of Cruzain (without detergent); note: nearly all actives have a fitted effect of over 40% in size;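 for max response, negative = inhibition: plate controls were enzyme without inhibitor for no effect and buffer without enzyme for full effect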
# Details: purified cruzain, Z-FR-AMC fluorescence, no detergent
# Method in brief: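 Purified cruzain at 1.5 nM, pre-incubated 15 min with compound at room temperature in 100 mM sodium acetate pH 5.5, 5 mM DTT, 0.00005% Triton X-100. Reaction started with 2 uM Z-FR-AMC; AMC fluorescence increase over 60 s gives rate.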
# Potency is the fitted concentration of half-maximal effect; tags give direction and shape of the fitted curve.
# Chain of UniProt P25779 (P25779 whole entry, looked up): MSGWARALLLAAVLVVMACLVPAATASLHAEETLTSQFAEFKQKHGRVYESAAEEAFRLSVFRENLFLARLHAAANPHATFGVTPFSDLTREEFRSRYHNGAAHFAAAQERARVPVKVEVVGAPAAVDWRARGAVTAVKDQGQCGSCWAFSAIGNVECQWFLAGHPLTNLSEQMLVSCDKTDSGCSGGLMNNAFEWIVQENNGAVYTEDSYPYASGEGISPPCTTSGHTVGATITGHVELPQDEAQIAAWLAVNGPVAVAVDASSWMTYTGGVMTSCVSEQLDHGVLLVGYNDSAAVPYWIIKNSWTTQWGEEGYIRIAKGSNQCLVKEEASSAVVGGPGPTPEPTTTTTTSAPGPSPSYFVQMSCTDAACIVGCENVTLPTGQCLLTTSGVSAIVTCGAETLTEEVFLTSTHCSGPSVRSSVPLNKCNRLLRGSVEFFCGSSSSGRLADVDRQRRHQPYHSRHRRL
SMILES,"max response, negative = inhibition",Potency
COc1ccc(-c2nc3c4ccccc4n(CC(=O)N4CCN(c5ccc(F)cc5)CC4)c(=O)n3n2)cc1,inactive: 12%,–
Cc1nn(Cc2c(F)c(F)c(F)c(F)c2F)c(C)c1NC(=O)c1ccc(COc2ccc(F)cc2)o1,–,"inconclusive: 20 µM [activator, single point]"
CCCCN(CC)S(=O)(=O)c1ccc(C(=O)Nc2nnc(CSC)o2)cc1,–,"inconclusive: 31.6 µM [activator, single point]"
O=C1NC(c2cccs2)Nc2sc3c(c21)CCCC3 (stereo not given),–,"inconclusive: 31.6 µM [inhibitor, single point]"
CCCS(=O)(=O)N1CCCC(C(=O)N2CCC(Cc3ccccc3)CC2)C1 (stereo not given),–,"inconclusive: 31.6 µM [activator, single point]"
CCOCCCNC(=S)NCCNc1nc2c(C)cccc2cc1C#N,–,"inconclusive: 39.8 µM [activator, single point]"
Cc1ccc(O)c(C(=O)c2cnc3c(c2)c(C)nn3-c2ccccc2)c1,–,"inconclusive: 31.6 µM [inhibitor, single point]"
Cc1cc(C)cc(N(CC(=O)N2CCN(Cc3ccccc3)CC2)S(=O)(=O)c2c(C)noc2C)c1,–,"inconclusive: 25.1 µM [activator, single point]"
c1ccc2cc3c(NCCN4CCOCC4)ccnc3cc2c1,–,active: 25.1 µM
Cc1cccc(NC(=O)c2sc3nc4c(c(-c5cccs5)c3c2N)CN(C)CC4)c1,–,"inconclusive: 39.8 µM [inhibitor, single point]"
CCCCCC(=O)Nc1ccc(NC(=O)c2cc3ccccc3o2)c(OC)c1,–,"inconclusive: 3.16 µM [inhibitor, single point]"
O=C(CSc1nc2c([nH]c3ccccc32)c(=O)n1-c1cccc(Cl)c1)N1CCOCC1,–,"inconclusive: 25.1 µM [inhibitor, single point]"
CCS(=O)(=O)N1CCC(C(=O)NCc2ccc(F)cc2Cl)CC1,inactive: -18.1%,–
Cc1cc(C)cc(N2C(=O)NC(=O)/C(=C/c3cccn3-c3ccc(Cl)cc3)C2=O)c1,–,"inconclusive: 39.8 µM [inhibitor, single point]"
Cc1c(CNC2CCCCC2)c(C(=O)O)c(C)n1Cc1ccc(F)cc1,inactive: 6.24%,–
COc1ccc(N2CCN(S(=O)(=O)Cc3ccccc3)CC2)cc1,–,"inconclusive: 39.8 µM [inhibitor, single point]"
O=C(NCCNC(=O)c1ccco1)c1cccc(F)c1,inactive: 1.6%,–
Cn1c(OCc2cccnc2)nc2c1c(=O)n(Cc1ccc(Br)cc1)c(=O)n2C,–,"inconclusive: 39.8 µM [activator, single point]"
CC(C)c1noc(-c2ccccc2OCC(=O)Nc2ccccc2[N+](=O)[O-])n1,–,"inconclusive: 31.6 µM [inhibitor, single point]"
COc1cccc(-n2c(SCc3c(C)noc3C)nnc2-c2cccc(S(=O)(=O)N(C)C)c2)c1,–,"inconclusive: 31.6 µM [activator, single point]"

SMILES,"max response, negative = inhibition",Potency
O=C(Nc1ccc2oc(-c3ccc4ccccc4c3)nc2c1)c1ccc2c(c1)OCCO2,–,active: 10 µM
Cc1cccc(N=Nc2c(N)n[nH]c2-c2ccc(Cl)cc2)c1,–,active: 25.1 µM
Cc1ccccc1-n1c(SCC(=O)N/N=C/c2c(C)nn(-c3ccccc3)c2C)nc2ccccc2c1=O,–,"inconclusive: 39.8 µM [inhibitor, single point]"
CCOC(=O)C1=C(C)NC(C)=C(C(=O)OCC)C1C(=O)OCC(=O)N1c2ccccc2CC1C (stereo not given),–,"inconclusive: 39.8 µM [activator, single point]"
Cn1c(N)c(C(=O)COC(=O)CSc2ccc3ccccc3c2)c(=O)n(C)c1=O,–,"inconclusive: 31.6 µM [activator, single point]"
Cc1c(Cl)cccc1NC(=O)Cn1nnc2sc3c(c2c1=O)CCCC3,–,"inconclusive: 39.8 µM [activator, single point]"
COc1ccccc1C(=O)Nc1cccc(C(=O)OCc2cc(=O)n3nc(C)sc3n2)c1,inactive: -6.62%,–
CCOc1ccc(-n2c(SCC(=O)NC(C)CC)nc3n[nH]c(C)c3c2=N)cc1 (stereo not given),–,"inconclusive: 7.94 µM [activator, full curve]"
COc1ccc(C(=O)N(c2ccc(OC)cc2)S(=O)(=O)c2ccc3c(c2)n(C)c(=O)n3C)cc1,–,"inconclusive: 31.6 µM [activator, single point]"
Cc1ccc(C)c(N2CCN(CCCNC(=O)c3ccc4nc(N5CCCCC5)sc4c3)CC2)c1,inactive: 7.65%,–
Cc1ccc(-c2nnc(Nc3ccccc3)c3ccccc23)cc1S(=O)(=O)NCc1nc2ccccc2[nH]1,–,"inconclusive: 39.8 µM [inhibitor, single point]"
Cc1cccc(N2CCN(C(=O)CCS(=O)(=O)c3ccc4c(c3)oc(=O)n4C)CC2)c1C,–,"inconclusive: 39.8 µM [activator, single point]"
CCCCCc1c2c(cc(O)c1C(=O)O)OC(=O)c1cc(C(=O)CCCC)c(OC)cc1O2,–,"inconclusive: 39.8 µM [activator, single point]"
Fc1ccc(-c2cc(C(F)(F)F)nc(NCC3CCCO3)n2)cc1 (stereo not given),–,"inconclusive: 39.8 µM [activator, single point]"
COc1ccccc1NC(=S)NC(=O)CCCOc1ccc(Cl)cc1Cl,–,"inconclusive: 7.94 µM [inhibitor, partial curve]"
C=Cc1ccc(COc2ccc3oc(-c4ccccc4)c(C(=O)OCC)c3c2)cc1,–,active: 31.6 µM
O=c1oc2ccccc2cc1-c1csc(Cc2nc(-c3ccc(Br)cc3)cs2)n1,–,active: 3.16 µM
O=C(CN1CCN(CCN2C(=O)c3cccc4cccc(c34)C2=O)CC1)c1ccc(F)cc1,–,"inconclusive: 15.8 µM [inhibitor, partial curve]"
Cc1ccc(-n2c(/C=C/c3cc(Br)cs3)nc3ccccc3c2=O)cc1C,–,"inconclusive: 39.8 µM [inhibitor, single point]"
O=C(C1CCC(=O)N1Cc1ccccc1Cl)N1CCN(c2cccc(Cl)c2)CC1 (stereo not given),–,"inconclusive: 31.6 µM [activator, single point]"
